Reference: the supplement of paper PMC10681739
In all, about 4,100 sequences were measured (“arbitrary fluorescence units”: median about 780, highest 2% from about 22,000 on). The list shows a part of the results.

What follows are sequences tested against T1, ETS1 (UniProt P14921) (assay: ETS1 binding intensity (PBM fluorescence), ETS1 alone (arbitrary fluorescence units); higher = stronger binding). Conditions: ETS1 concentration 1 nM; RUNX1 concentration 0 nM.
T1 sequence: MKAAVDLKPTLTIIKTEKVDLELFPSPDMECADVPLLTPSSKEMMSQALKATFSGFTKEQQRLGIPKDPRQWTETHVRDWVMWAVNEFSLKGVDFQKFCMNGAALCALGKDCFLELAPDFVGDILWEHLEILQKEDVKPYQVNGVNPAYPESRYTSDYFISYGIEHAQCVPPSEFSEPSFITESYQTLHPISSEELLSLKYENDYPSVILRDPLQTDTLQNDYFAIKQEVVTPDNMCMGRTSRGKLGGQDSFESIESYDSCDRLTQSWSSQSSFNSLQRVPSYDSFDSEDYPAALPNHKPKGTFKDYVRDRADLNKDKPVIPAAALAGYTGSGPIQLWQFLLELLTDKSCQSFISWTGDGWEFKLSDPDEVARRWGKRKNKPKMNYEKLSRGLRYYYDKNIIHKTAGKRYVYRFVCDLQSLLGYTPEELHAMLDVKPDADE
In short: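 Recombinant full-length human ETS1 was applied at 1 nM, without RUNX1, to double-stranded Agilent 4 × 180k arrays of 36-bp genomic probes carrying a mutated RUNX1 partner site, following standard PBM protocols. Detection used an anti-ETS1 antibody (Cell Signaling Technology 14069) and an Alexa488-conjugated secondary antibody, with scanning on a GenePix 4400A. Each sequence was printed as four replicate spots. Binding level is the spot fluorescence intensity, summarised across replicates and not normalised.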

| Sequence | ETS1 binding intensity |
| --- | --- |
| GTACTGCTTGGGGGAGAGCCCCACAGGAAATCCAGA | 731 |
| ATGGTGCCCGCTGCAGCCGAGGACCGGATAGCCCGC | 340 |
| CTCTTGGGGTCAGGTCACGCCGCCGGAAGCCGCCCC | 650 |
| AGCTTCCTGTTTGGCCTTGCTGATGTCACCCCATTA | 27600 |
| GCTCCCTCGGTGGGGATGCTGTTTCCGTCCTGGATG | 701 |
| TTAACTCCACGGAAGAATAAACTACCTCCGCTCACC | 465 |
| GTGATGGCACCCTCAAAGCTGCAGAGGATGTGAGCA | 433 |
| CCCTTGCCAGAGGAAGCCACTGCCACCGAAGAAGCA | 372 |
| TGACTTCCTCCTCTTCACTAACAGAAACGTCAATTT | 9420 |
| GGCTTGCCAAGAGGAAATTTGAAGCTACAATAACAT | 397 |
| ACCCCTGCTGGTCCTGTGCCTGGCGGGCTTCCGGCA | 633 |
| TAAGGAAGCTGAGGGGAGGGTGTTATGAGCACATCA | 430 |
| GGGGCCTCACCTCAGGTTCCACTTCCTTTCTGGGTA | 1190 |
| ATAAGGAAGCCGGCGCACTGATTTGGGGTTGTTGCC | 394 |
| TGCCTGTTGTCTTTTGAGAGGTGGGGAAGTGGGCGA | 519 |
| AGGCTGTGATTATCTGCAAACAGCCCCCTTCCTTCA | 303 |
| CGGCTCCTGAGGGCCCTCACATCCTGAAACACCGCT | 850 |
| GAGGACGCGGAAGTCCTTCTCGCGGGGCGGAGCTAG | 1540 |
| TTGGTTGTGTCGTCGCGTCTCGGAAACCGGTAGCGC | 400 |
| ACCGGAGTGTGGAGGTAAACCTTTTCCGGCCTTCCA | 1810 |
| AACACAGGTTCTGGGAGCAAGAAAGGAAGTGGCTTG | 536 |
| CCGAGGTTCCTGCTGCAGAAAGAAAGCGGAAATTTC | 1630 |
| TCCTGTTTTCCACCCAGCCTCTTCCTCCCGTGCCCA | 507 |
| GTAACCCAGGCCCCAAGTGGGGTGAAGGAAGCTGTA | 391 |
| CCACCCAGAAAACTACATTTAACTTCCTCCTCTACT | 804 |

| Sequence | ETS1 binding intensity |
| --- | --- |
| CTTCGAATTGCCGCGAGAGAGTTCCGCGTAGGGGTC | 371 |
| TGGCTGGGGCTGCCGGGGCAGCGCTTCCTCTAGCAA | 470 |
| CCCAGCCGTATGTGCAGAGTGGGGAGGAAGAGGAGG | 410 |
| CTCCAGGGACTACAGCGGGAGAGGAAATAGCCACCA | 515 |
| CCTCTCCATCTTCCGCACCACTGAGGCCGCTGTCTC | 1320 |
| AAGCCCTAGAGGAAATTAGTACGTAAGCACCTTCTG | 670 |
| AGCGGCTTCCTGCTGGGCTTTTGCACTCCCCAGAAC | 11800 |
| CCTGGGACACCTCGAAAGTCGGGAAATGGTGCGTGT | 346 |
| CCACCAAGAGTGGATTCTGACCTCTTCCTGCCACTG | 651 |
| GGAATCCGCTGCCGCCGCCCTCGGGTTCCGCCGCGG | 591 |
| TTGAAGCGGAGGTTCGATGCGGAAGTGGCGGGTGCA | 1080 |
| CTTTTCGCGTTGTAGCTGGGACTTCCGCTCCGCCAT | 3690 |
| CTAAACCGGAAGCCGCCCCTCTGGCCGCTCTAAAAC | 21900 |
| AACTTCCGAGGGAACTAACTGGTTTTAATCACATTG | 4690 |
| TCTCCACCCAAGCACACTATTTCCTTTCTTGCTGCC | 937 |
| ACGTCGTCGCCGAAGGGCCCCTTCCGCCTCCGTTCC | 674 |
| TCCTCCCCCAACGGCACCCTCAGCTTCCTGTTTCAG | 1720 |
| TCAGAGAGAGCTCTGGTTGCCGGAAGTTGAGCGGCG | 3400 |
| AGGCGGAACTACTGTGTCAGGAGTCGTGCTTTTCAA | 375 |
| GGTGCCGAAGCTCCAGCCTCTCGGCAAGGAAGCGCT | 334 |
| AGATCTGGAGGCGGTCGCGGATGGGCTGGCGGCAGA | 301 |
| TTAGAGTCTCTGGGGCTCTTAGCTGGGAAATGATAC | 352 |
| CAAAGCAACCTCCACCTGGTGGCGCCACTTCCCCCC | 439 |
| GAGGCTGTTGTCACATGGGGGAGGAAACAATAGCCC | 499 |
| AGACCCGGAAGAACTTGTCCCAGTGTTGACAACACC | 1200 |

| Sequence | ETS1 binding intensity |
| --- | --- |
| CCCTAGCTGCAGCCCAAGATCCTCCCACGGGAAGTG | 418 |
| CCTGTCTTGTAGTTAAGTCAAGGCAGGAAATGCTTT | 1860 |
| TCTCGGTTTCCTAAAAAACTAATCCGCCTGGGGCTG | 623 |
| ATCTTACCCCGGAAATGACAACAGTGCCGTAAACTG | 9240 |
| ACAGCGCTGATCGCGGAGGTCCAACCGGAAGAATGT | 711 |
| GAGAGGAGCGCTGTCACTGCTTCCTTCCACCCTCGC | 437 |
| GCAGCCCAGCTTCCTGCAGACCAAAACCCCAAGCAG | 4680 |
| GAAAGAGGTTTGGGGTTAGTGCTTCCTGTCTCCACA | 2890 |
| ACGACTGCAGGGGAAAGCAAGCCGGCCGGATGAGAA | 419 |
| TCTAGTAAAAGAGGAAGTTCTTAACGACATTTCCAT | 1010 |
| TTGGTTCTGTGATTTCAGGTGTGAGTTCCGGTGTGC | 695 |
| GTATCAGCCGCGCCCCAGTCGGAGGAAATAGACGCT | 435 |
| GCTGACCCGGAAGCGCTCGTGTCCACCATCTCCGAC | 3790 |
| ACCTTGTAGCCTATTCTAACCCCAGCCCGGAAACCA | 580 |
| GTCCTCTTCGGTGGCGCCAGCTTCCTTTCAATTCCA | 673 |
| TGGGTGCCGGATTCGGTGAGTGAGGTTCTCATGATG | 538 |
| TGCGTCCATTCCGGGCTTCTGGCCGTAAGGCGCCAG | 368 |
| AGCCGCGCCGAATCCGCTCAGTGCATCCGGGGCCCC | 1250 |
| GCTCCTCACTGCGCTCACAGCCACATCCTGCAGAGC | 957 |
| TCCCGGCGTTCTTCCGCTGGCTCAGCCGCGAGTACC | 2930 |
| ATGCAGAAGCTACAGGAAGAAGCCGCTGGCCAAGCT | 668 |
| GGGCGGAAGGGGTTCGCACGCCAAGAACTGCCATGC | 434 |
| CTGACAGTTACTTCCTGTCTTTGTGAGCGATTGTGA | 19200 |
| CGTTTCCTGTGGCTGCAGCTCTCCCCACGCACACAC | 23800 |
| GGCGGAAGCTGCCGCTGCCTTGCGCCCCCTCACACG | 1100 |

| Sequence | ETS1 binding intensity |
| --- | --- |
| TAAACCCTGGAGCACAGACAGGAAGGAACTTGCTCA | 650 |
| GAACCCGGCGATCACGGGAATATCCGTCGCGCCGAG | 687 |
| CGGTAGGCGGCTATCCTCCAAGCTGGCAGGAAGCGC | 413 |
| GCGGCGCTGCAGGCCGAGGTGGGGCCGGAAATGTCA | 804 |
| ACCCCAAACTCACAAACCCACCGGAAGGAACCAACT | 1470 |
| AAGTGAGCCATGTGCGTACGTGCGGAAGAATATTCA | 413 |
| GATGTTGTCTCGGCTGGAGCCTGCAGGAAACCTCGT | 383 |
| CGATATAACTACCCCTAAGCTAAACTACATCCTGGT | 572 |
| GCAGGCTCGAGCGGCCAAAGCTCTTTCCGGGGGCCC | 424 |
| GTTTTCAAGGCAGGAAGTGGCTGTAGTGGCACGGAG | 7460 |
| GCGGGGCGCAGGAAGCGGGGCGAAAGCACTGTTGGC | 1660 |
| GGGTTGGTAGTTATCAGCGGGGGGAAGTAGGAGGTG | 1110 |
| TTCTGCAAGAAATCCAACATAATTTCCTGTCTCTAC | 2490 |
| CAAAACACCTGTGATTTTGCAAAAGGATGTGATTTC | 393 |
| GGCACCCCCGAATTTCTTCGAAGAGGAAATAAATAC | 456 |
| TGACTCACCTTCCTGTAGGTTGGATTTCTGCATATC | 1490 |
| TGGCCAGGAAGCCACTCGATTGCCGGCGCCCTCAGC | 566 |
| ACAGAGAGGGAAGTCGCCAGTGTTGTCAGCGGGCGT | 494 |
| AGCGGGAGGAAGTGCTGCAGTAGGCACAGCAGCCTG | 2010 |
| CACCCCGCCTCTGAGGGACCACTTCCGGCGCCTTCT | 9910 |
| AACTGGATTGAGCACATGGAGGAAATGGGAGGAGGC | 556 |
| TTTCCTGAGCTTAAACACAACTATGTGTTTCCTGAC | 432 |
| GGACTGCGTTTCCGGACACTGAGGGTGCCGGTAGCC | 12100 |
| TGATAGTGGATTTGGGGTGATGCAAACAGGAAGAAA | 555 |
| CTGCAGTCACCTACAGCTCACTTCCGCTCTCCACTT | 5270 |

| Sequence | ETS1 binding intensity |
| --- | --- |
| GCCGCGAGTTCCGCCGGGTGGACCCCAAATCCCGAG | 1130 |
| CTCCGCAGGATGACTCAGGGCAGCCCTGACAACAGT | 318 |
| GAAGAGTTGAGGGATGAGGGCTCGCGGAAGATAAAA | 430 |
| TCCAGGATGTGCTGAACCTCCAGAATCCACCGGCTT | 678 |
| AGCTTGGCCAGCGGCTTCTTCCTGTAGCTTCTGCAT | 1010 |
| CCCCACATCCGGGGGCCGGGGCCGGGCTGAGGGCTT | 13100 |
| ACCGGATGCCGGGGCACCGCCAGATGTTGCCACGAG | 1960 |
| TGCGAGGAAGCGCGGCCACGTGACTGCTGCAGGCCA | 392 |
| ACTTAGTGAAGTTTCCTTCACTTGGTCTTGCTCTTC | 474 |
| TGCGCCGAAAACGCTTCCTCCTCCGCGAGTGGCTGA | 830 |
| AAACAGCGGCGCGAAAGTCTCTCGGAAATGACGCAA | 335 |
| AGCACAGCCCTCAGCCATGGGTTCAGCCGGAAGCCC | 439 |
| GCGGGCGTGCAGGCGGCAGATGAGGAAACAGACTAG | 389 |
| ACCGCCGGAAGTTTCTGCCGCGGCTTTTCGGGGACG | 6040 |
| GTTTTGGGGCCTAAAGAAACATATGGTCAGGATGAT | 444 |
| GCCTGCGCTCTTTCCGGTAGCCAGAGCCTCGTCTAA | 8280 |
| AGCACCCCATTCTACACCTCCAGCTCATCCTGCGTC | 389 |
| CAGGTGTCCGTGGCTGGGAGGAAACCCAGAGTCAGG | 377 |
| ATTTCCATTTCCGGACTCTTCTCCTGCCCTCAGGGC | 17600 |
| AAAAACTACATTTCCCATGAGCACCCTCAGGCGTGC | 551 |
| GGCTTGGGGTTTGGTGATTGTACTTCCTTATTGATA | 738 |
| AGATGCAAACACAGGAAACTTGTGGACTATGCTGCT | 842 |
| GCGGAATTGGGGCGGGAGGGGGAGGAGGAAGTCAGG | 1730 |
| TCAGTCTTGGGGTTAAGGGAGGAAGGGTACTGTTGG | 400 |
| GAGGAGGTGGCTGCTATAACCCCAAGGGGGAAACGC | 436 |
